In all, about 310,000 compounds went through this assay and about 2,200 (0.71%) showed an effect of 50% or more. Effects have a minus sign here. The list shows a part of the results.

The experiment deals with human ether-à-go-go-related gene (hERG) potassium channel (human, UniProt Q12809). Kind of experiment: primary screen, population patch clamp on CHO cells stably expressing hERG.
Sequence of human ether-à-go-go-related gene (hERG) potassium channel (Q12809 whole entry, looked up): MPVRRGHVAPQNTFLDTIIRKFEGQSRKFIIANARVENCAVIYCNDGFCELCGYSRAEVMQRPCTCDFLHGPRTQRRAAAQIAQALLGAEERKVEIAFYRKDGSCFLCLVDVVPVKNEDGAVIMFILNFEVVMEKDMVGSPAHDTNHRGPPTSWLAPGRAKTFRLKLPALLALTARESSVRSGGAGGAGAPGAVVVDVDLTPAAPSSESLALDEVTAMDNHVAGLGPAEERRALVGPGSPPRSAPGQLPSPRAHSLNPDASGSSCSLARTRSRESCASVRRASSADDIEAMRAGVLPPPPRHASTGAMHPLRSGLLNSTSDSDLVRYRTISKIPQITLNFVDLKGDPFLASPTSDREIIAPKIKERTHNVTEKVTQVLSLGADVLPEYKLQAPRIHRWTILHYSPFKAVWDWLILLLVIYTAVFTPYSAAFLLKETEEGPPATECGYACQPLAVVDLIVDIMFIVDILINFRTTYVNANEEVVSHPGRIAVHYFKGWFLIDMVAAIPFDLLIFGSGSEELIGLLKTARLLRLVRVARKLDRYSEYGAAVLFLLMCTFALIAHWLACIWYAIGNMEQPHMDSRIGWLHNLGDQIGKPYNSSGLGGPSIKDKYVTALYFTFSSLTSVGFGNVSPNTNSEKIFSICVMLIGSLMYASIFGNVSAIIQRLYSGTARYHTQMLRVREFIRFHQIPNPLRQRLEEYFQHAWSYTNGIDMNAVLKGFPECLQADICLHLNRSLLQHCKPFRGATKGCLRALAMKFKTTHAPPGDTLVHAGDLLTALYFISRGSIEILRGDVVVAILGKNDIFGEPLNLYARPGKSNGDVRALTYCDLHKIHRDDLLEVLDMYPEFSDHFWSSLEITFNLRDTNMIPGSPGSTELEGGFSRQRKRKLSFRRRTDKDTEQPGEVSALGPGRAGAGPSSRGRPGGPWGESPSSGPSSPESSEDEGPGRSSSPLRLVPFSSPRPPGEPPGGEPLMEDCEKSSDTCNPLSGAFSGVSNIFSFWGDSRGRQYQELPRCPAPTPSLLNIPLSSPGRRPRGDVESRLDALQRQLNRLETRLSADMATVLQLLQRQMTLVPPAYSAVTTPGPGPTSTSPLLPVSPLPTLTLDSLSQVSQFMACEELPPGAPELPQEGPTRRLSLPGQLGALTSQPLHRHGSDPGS
With `Cc1cc(NC(=O)CCSc2ccccc2)no1`, the “hERG current change (%, negative = inhibition) at 1uM” value was found to be 14.2%.

For the compound `CCCCn1c(SCc2nc3ccccc3s2)nc2ccccc2c1=O`, the “hERG current change (%, negative = inhibition) at 1uM” value is on record as -7.77%.

On to `CCCC(C)C(=O)Nc1nc(C)c(-c2csc(Nc3ccccc3OC)n2)s1` (stereo not drawn), for which the “hERG current change (%, negative = inhibition) at 1uM” value was 15.2%.

In the case of `CCOC(=O)C(C(=O)OCC)C(C[N+](=O)[O-])c1ccccc1` (stereo not drawn), the “hERG current change (%, negative = inhibition) at 1uM” value was 15.6%.

Regarding `Cc1ccc2c(c1)sc(=NC(=O)C1CC1)n2C`, the “hERG current change (%, negative = inhibition) at 1uM” value is 11.3%.

As to `Cc1ccc(CNS(=O)(=O)c2cc3c4c(c2)C(C)C(=O)N4CCC3)cc1` (stereo not drawn), the “hERG current change (%, negative = inhibition) at 1uM” value is on record as 5.3%.

With `Cc1ccc(S(=O)(=O)N/N=C/c2cc(Br)c(C)o2)cc1`, the “hERG current change (%, negative = inhibition) at 1uM” value is given as 8.23%.

On to `CCCCCCCCCC(=O)N/N=C(\C)c1cccnc1`, for which the “hERG current change (%, negative = inhibition) at 1uM” value was 8.34%.

In the case of `COc1ccccc1CNC(=O)C1CCCC1`, the “hERG current change (%, negative = inhibition) at 1uM” value is 16.1%.

As for `c1ccc(CCNCCCOc2cccc3ccccc23)cc1`, the “hERG current change (%, negative = inhibition) at 1uM” value came out at 9.09%.

`O=C(NCCN1CCOCC1)c1c(F)c(F)c(F)c(F)c1F`: the “hERG current change (%, negative = inhibition) at 1uM” value is recorded as 13.8%.

On to `CN(C(=S)NC(=O)C1CC1)c1ccc(O)cc1`, for which the “hERG current change (%, negative = inhibition) at 1uM” value is 1.38%.

Turning to `CS(=O)(=O)Nc1ccc(-c2cc(/C=C3\SC(N)=NC3=O)c[nH]c2=O)cc1`, the “hERG current change (%, negative = inhibition) at 1uM” value is on record as 11.3%.

For the compound `Cc1ccc(NC(=O)CCn2c(=O)[nH]c3ccsc3c2=O)cc1F`, the “hERG current change (%, negative = inhibition) at 1uM” value came out at 10.7%.

Consider `Cc1nc(-c2ccc(C#N)cc2)cs1`, for which the “hERG current change (%, negative = inhibition) at 1uM” value was 6.32%.

As to `Cc1ccccc1C(=O)Nc1ccccc1Sc1ccccc1`, the “hERG current change (%, negative = inhibition) at 1uM” value is 13.8%.

For `CC1CCCC(C)N1C(=O)COC(=O)C12CC3CC(CC(Cl)(C3)C1)C2` (stereo not drawn), the “hERG current change (%, negative = inhibition) at 1uM” value worked out at 4.8%.

Take `c1ccc2oc(SCc3cn4ccccc4n3)nc2c1`: the “hERG current change (%, negative = inhibition) at 1uM” value is -12.5%.

Consider `O=C(Cc1cc2ccccc2o1)NCc1ccc(F)cc1`, for which the “hERG current change (%, negative = inhibition) at 1uM” value is 13.7%.

With `Cc1ccc(N(CC(=O)NC2CCCCC2)C(=O)Cn2nnc(-c3ccc(C)o3)n2)cc1`, the “hERG current change (%, negative = inhibition) at 1uM” value was 4.94%.

In the case of `CCN(CC)c1ccc(/C=C2\C(=O)NC(=S)N(C)C2=O)o1`, the “hERG current change (%, negative = inhibition) at 1uM” value came to 7.14%.

Consider `COc1ccc2c(C(=O)CN3CCC(C)CC3)c[nH]c2c1`, for which the “hERG current change (%, negative = inhibition) at 1uM” value was -3.09%.

`CC(C)OCCCn1c(=NC(=O)c2ccncc2)c(C#N)cc2c(=O)n3ccccc3nc21`: the “hERG current change (%, negative = inhibition) at 1uM” value is recorded as -63.4%.

In the case of `O=C(Cn1c(=O)c2cccn2c2ccccc21)NCCc1ccc(Cl)cc1`, the “hERG current change (%, negative = inhibition) at 1uM” value stood at 7.16%.

As to `CCOc1cc(/C=N/NC(=O)Cn2nc([N+](=O)[O-])cc2C)ccc1OCc1ccc(F)cc1`, the “hERG current change (%, negative = inhibition) at 1uM” value is listed as 8.07%.

As to `CCOC(=O)c1c(NC(=O)CSc2nnc(-c3cccnc3)o2)sc(C)c1C`, the “hERG current change (%, negative = inhibition) at 1uM” value was 10.8%.

With `COC(=O)c1cn(NC(=O)c2cccc(F)c2)c(=O)c2ccccc12`, the “hERG current change (%, negative = inhibition) at 1uM” value was determined as 27.7%.

On to `CCN(c1ccccc1)S(=O)(=O)c1ccc(OC)c(NC(=O)c2cccs2)c1`, for which the “hERG current change (%, negative = inhibition) at 1uM” value amounted to 11.2%.

For `CCc1ccc(NS(=O)(=O)c2ccc3[nH]cc(C(=O)N4CCc5ccccc54)c(=O)c3c2)cc1`, the “hERG current change (%, negative = inhibition) at 1uM” value was determined as 9.43%.

Regarding `C=CCn1c(SCc2c(F)c(F)c(F)c(F)c2F)nc(O)cc1=O`, the “hERG current change (%, negative = inhibition) at 1uM” value is on record as 7.44%.

Turning to `CC(=O)O[C@@H]1[C@H]2CC[C@@H]3[C@]1(C[C@@H](OC(C)=O)[C@@]1(O)C([C@@H]4O[C@@H]4C1(C)C)[C@]3(C)O)C[C@@]2(C)O` (stereo partly drawn), the “hERG current change (%, negative = inhibition) at 1uM” value is 5.75%.

As to `Oc1ccc(-c2nc3ccc4ccccc4c3c3c2CCC3)cc1O`, the “hERG current change (%, negative = inhibition) at 1uM” value was -0.0932%.

Consider `COC(=O)c1cccc(NC(=O)N2C[C@H]3C[C@@H](C2)c2cccc(=O)n2C3)c1`, for which the “hERG current change (%, negative = inhibition) at 1uM” value is 4.46%.

Turning to `CC12CC3(C)CC(C)(C1)CC(C(=O)NCC(=O)O)(C2)C3`, the “hERG current change (%, negative = inhibition) at 1uM” value is 19.5%.

For the compound `Cc1ccc(S(=O)(=O)N2CCN(CCC#N)CC2)cc1`, the “hERG current change (%, negative = inhibition) at 1uM” value came to 12.5%.

For `CCN(CC)c1ccc(-n2c(O)c(C=C3N=c4ccccc4=N3)sc2=S)cc1`, the “hERG current change (%, negative = inhibition) at 1uM” value is reported as 3.15%.

In the case of `Cc1nn(-c2ccc(F)cc2)c(Cl)c1C(=O)NCC1CCCO1` (stereo not drawn), the “hERG current change (%, negative = inhibition) at 1uM” value was 6.89%.

Consider `COc1ccc(/C(C)=N/NC(=S)NCCc2ccccc2)cc1`, for which the “hERG current change (%, negative = inhibition) at 1uM” value is 12%.

`Cc1cc(=O)oc(C)c1C(=O)NCc1ccco1`: the “hERG current change (%, negative = inhibition) at 1uM” value is listed as 10.4%.

Consider `COC(=O)c1ccc(-c2ccc(CNCC(O)c3ccccc3)o2)cc1.Cl` (stereo not drawn), for which the “hERG current change (%, negative = inhibition) at 1uM” value was 1.92%.

For `CCc1ccc(NC(=O)CSc2nnc(SCC(=O)Nc3ccc(CC)cc3)n2N)cc1`, the “hERG current change (%, negative = inhibition) at 1uM” value was -0.068%.

Regarding `CCCCC1=CC2=CC(=O)C(C)(O)C(=O)C2=CO1` (stereo not drawn), the “hERG current change (%, negative = inhibition) at 1uM” value is on record as 19%.

On to `Fc1cc2ncn(Cc3ccccc3)c2cc1F`, for which the “hERG current change (%, negative = inhibition) at 1uM” value is 7.02%.

Regarding `Cc1cc(C)cc(OCC(=O)OCC(=O)NC2CCCCCCC2)c1`, the “hERG current change (%, negative = inhibition) at 1uM” value is recorded as -9.86%.

Take `COc1ccc(CNC(=O)c2c[nH]c3c(OC)cc(OC)cc3c2=O)cc1`: the “hERG current change (%, negative = inhibition) at 1uM” value is 14.3%.

Regarding `COc1ccccc1CC(NC(C)=O)C(=O)NC1CCN(C(=O)c2cccc(Cl)c2)CC1` (stereo not drawn), the “hERG current change (%, negative = inhibition) at 1uM” value is 10.5%.

Regarding `O=C(N/N=C/c1ccc(O)cc1)c1csc2ccccc12`, the “hERG current change (%, negative = inhibition) at 1uM” value is recorded as -20.1%.

`COc1ccc(/C=N/NC(=S)NC2CCS(=O)(=O)C2)cc1OC` (stereo not drawn): the “hERG current change (%, negative = inhibition) at 1uM” value amounted to 4.93%.

As to `CC(=O)NC(CCS(C)(=O)=O)C(=O)Nc1cccc(C(C)=O)c1` (stereo not drawn), the “hERG current change (%, negative = inhibition) at 1uM” value is given as 11.7%.

Turning to `Cc1cc(C)n2cc(CSc3ccc(Br)cc3)nc2n1`, the “hERG current change (%, negative = inhibition) at 1uM” value is on record as -36.9%.

For the compound `C/C(Cc1ccccc1)=N\NC(=O)CNC(=O)c1cccc(F)c1`, the “hERG current change (%, negative = inhibition) at 1uM” value is on record as 13.3%.

On to `CCOC(=O)/C(=N\Nc1ccccc1Cl)N1CCN(c2ccccc2OC)CC1`, for which the “hERG current change (%, negative = inhibition) at 1uM” value worked out at 18.3%.

Consider `O=C(Cc1ccc(Br)cc1)Nc1ccc(S(=O)(=O)NCC2CCCO2)cc1` (stereo not drawn), for which the “hERG current change (%, negative = inhibition) at 1uM” value was 7.2%.

As to `CCN(CC(=O)Nc1ccc2c(c1)OCCO2)C(=O)C(C)Oc1ccc(Cl)cc1` (stereo not drawn), the “hERG current change (%, negative = inhibition) at 1uM” value amounted to 8.21%.

Regarding `COc1ccccc1Cn1nnc2c(=O)[nH]c(C3CCN(C(=O)c4ccccc4Cl)CC3)nc21`, the “hERG current change (%, negative = inhibition) at 1uM” value is given as 11.6%.

Take `Cn1c(=O)c2c(nc(SCC(=O)NC34CC5CC(CC(C5)C3)C4)n2C)n(C)c1=O`: the “hERG current change (%, negative = inhibition) at 1uM” value is -2.24%.

Take `COc1cccc(N=Nc2ccc3cccnc3c2O)c1`: the “hERG current change (%, negative = inhibition) at 1uM” value is reported as -1.19%.

The values are drawn from paper PMC4336329 (PLoS ONE, 2015).
